From the supplement of paper PMC11417369
Some of the results follow.

Test system: PfSIP2 AP2 domain 1 (GST-tagged)
Assay: gcPBM binding intensity (ln(normalized median fluorescence intensity)); higher = stronger DNA binding
Method in brief: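 The highest Masliner-normalised natural-log median intensity across replicate spots of either probe orientation is reported as binding intensity. GST-tagged P. falciparum DNA-binding domains expressed in E. coli were applied for 1 h to an Agilent 4 × 180k array of primer-extended double-stranded 36-bp intergenic genomic probes plus negative controls, and bound protein was detected with Alexa488 anti-GST antibody and scanned at 488 nm.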

Compared with “AATATATGGTATAATTGTACAAAAAAAAAAAAAAAA [XGTACX_site1476]”, “TCTTTAATGAACAAATGTACAAGAACAATACCCGCA [XGTACX_site2047]” is higher in “gcPBM binding intensity (ln)” value: 7.08 for the first, 7.1 for the second.

“CTTTAACCTTTTTATTGTACTTTTAATATTTTAAAA [XGTACX_site4457]” and “GTGAAATGGAAAAAAAGTACAGATTACATAAGTATT [XGTACX_site6355]” are the same in “gcPBM binding intensity (ln)” value: 7.39 for the first, 7.39 for the second.

Going from “AGTTTAGAATTTAATACACACAAAAAAAAAAAATTA [CACACA_site7698]” to “AACGTTCAATTTAAATGTACAAATGTATTTAAATAT [XGTACX_site315]”, the “gcPBM binding intensity (ln)” value falls from 6.99 to 6.87.

Compared with “AAATACAAAATTGTTACACACATATTAAGTATGACA [CACACA_site4421]”, “TTTCTTTTTTCATTTACACACAATAATATAAGAATA [CACACA_site3164]” is higher in “gcPBM binding intensity (ln)” value: 6.87 for the first, 7.28 for the second.

First: TACACAAATATATATATATATATATATATATATATA [XGTACX_negctrl_site305]
Second: TATTACACATATTATACACACATATATTATATATAT [CACACA_site4951]
The “gcPBM binding intensity (ln)” value of the first is higher: 9.89 for the first, 7.88 for the second.

Compared with “TAACATATTTTTAATACACACTTAAAAAAGTACTTA [CACACA_site4875]”, “TTAAATTGAATTAGTTAACACACAACTTTTATTTCA [CACACA_site8921]” is lower in “gcPBM binding intensity (ln)” value: 6.95 for the first, 6.65 for the second.

Going from “TCTTCATACGACTAAAAAACATTAGACTGATAAAAA [CACACA_negctrl_site628]” to “TTGTGTTTTACATATACATGCAAATTTTTTTTTTTA [TGCATGCA_site303]”, the “gcPBM binding intensity (ln)” value falls from 7 to 6.75.

Compared with “TAAATCATTTCATGGCATTTACACAAAATTTTTTAA [CACACA_negctrl_site1260]”, “TATAGCATAAATATGTGTACATATTTATATGATATT [XGTACX_site6333]” is higher in “gcPBM binding intensity (ln)” value: 6.82 for the first, 7 for the second.

Going from “TATATATAATATTATACACACATATATGCATAATAT [CACACA_site54]” to “TATTTATTTATATAAACACACATAAATATAAATATA [CACACA_site6653]”, the “gcPBM binding intensity (ln)” value falls from 7.31 to 6.97.

First: ATATATATTTAAAAAAGTACAGAAGAAAATAACCCA [XGTACX_site642]
Second: TATTAATAAAACCGTTGTACTACATACATAAATATT [XGTACX_site5578]
The “gcPBM binding intensity (ln)” value of the first is higher: 7.5 for the first, 6.94 for the second.

Going from CATTATATGATTTATGTGCACATTCATTTATTTTAA to “AAAAATCAATTAGAAGAACACACGTAAATTTTTTTT [CACACA_site2396]”, the “gcPBM binding intensity (ln)” value falls from 8.5 to 6.73.

Going from ATACTATATATATAAGTGCATGTTCATTATACCTAA to ATATATATTATGTGTGTGCACTTTTGTTATTATTAT, the “gcPBM binding intensity (ln)” value rises from 8.28 to 10.4.

Going from “ATAACTAAATGATATTGTACAAAATAATTATATATT [XGTACX_site1331]” to “TAAATGGGTGTTAATGCACACGATATGTCTATATAT [CACACA_site5321]”, the “gcPBM binding intensity (ln)” value rises from 7 to 7.07.

Going from “TATTTATTTTTCTGTTGTACTTTTCAACATGTTACA [XGTACX_site7457]” to “TCTACATATTAATTATGTACGAATTATTATTAGTAA [XGTACX_site6924]”, the “gcPBM binding intensity (ln)” value falls from 7.18 to 6.82.

Going from “TATTTATGTTCATATAAACACACGTAAAATTCAAGG [CACACA_site1538]” to “GTCCCTATAAGGGGAACACACATAAATGGATATATA [CACACA_site6612]”, the “gcPBM binding intensity (ln)” value falls from 7.15 to 6.81.

First: CATATTCATAAAAGTTGTACATGCAATTTTTTTTTT [XGTACX_site2261]
Second: TCAATAAAAAAAAACGCACACACAAATATATTCCAT [CACACA_site1223]
The “gcPBM binding intensity (ln)” value of the first is lower: 6.81 for the first, 6.99 for the second.

Compared with “TATTTTTTTTTTATATGTACATAATTTCAAATAAAT [XGTACX_site7747]”, “AAGGATATAACATACACACACACACCGATATATATA [CACACA_site6136]” is higher in “gcPBM binding intensity (ln)” value: 7.03 for the first, 7.47 for the second.

Going from “ATAACGATATATGTGCGTACTTATAGAATAAGCAAA [XGTACX_site6743]” to “AAAATTATATATTATTGTACATAAAATTTTGACATA [XGTACX_site4886]”, the “gcPBM binding intensity (ln)” value falls from 7.07 to 6.93.

Going from ATATATCATATTATAGTGCATTTATAATAATATTAT to “TATTATCTGTAGTGTACACATATTATATAGTACTTT [CACACA_site4582]”, the “gcPBM binding intensity (ln)” value falls from 9.33 to 7.36.

First: ATATATATATATATATGTACATATATGTATACCTTA [XGTACX_site6791]
Second: ATAAATACTAGGCACACACACATATATATATATATA [CACACA_site2080]
The “gcPBM binding intensity (ln)” value of the first is lower: 9.28 for the first, 9.33 for the second.

First: CAATAGTTCTTATGGGTGCAAACCACATATATATAA [GTGCAC_site9606]
Second: TTTATTTATCTGTATACACACTTTAATGAAAAGTTG [CACACA_site5400]
The “gcPBM binding intensity (ln)” value of the first is higher: 11.3 for the first, 6.99 for the second.

First: ACAAATCTAAGATAGTGTACATTTATATATATATAT [XGTACX_site8740]
Second: TATATATATATATAAGTGCATATAAAAATCGTTCGT
The “gcPBM binding intensity (ln)” value of the first is lower: 9.36 for the first, 9.51 for the second.
